Results from paper PMC11477209, “Toxicological Evaluation of Kaempferol and Linearolactone as Treatments for Amoebic Liver Abscess Development in Mesocricetus auratus” (International Journal of Molecular Sciences, 2024).

Settings: IC50 normal cell line/IC50 trophozoites

C[C@]12C[C@H](c3ccoc3)OC(=O)[C@H]1CCC13COC(=O)C1=CC=C[C@H]32 (stereo partly drawn) [LL, (4S,7R,9R,10S)-7-(furan-3-yl)-9-methyl-6,16-dioxatetracyclo[8.7.0.01,14.04,9]heptadeca-11,13-diene-5,15-dione]
SI (selectivity index): > 32
